Source: ChEMBL document CHEMBL1156829
Over roughly 5,400 compounds, “IFI” has its median near 2; the highest 2% begin near 22. This is one part of the list.

Assay: NOVARTIS: Inhibition Frequency Index (IFI) - the number of HTS assays where a compound showed > 50% inhibition/induction, expressed as a percentage of the number of assays in which the compound was tested.
Format: functional
`N#C/C(=C\C=C\c1ccc([N+](=O)[O-])o1)c1nc2ccccc2[nH]1` showed an IFI of 28.6%. With `COc1ccc(-[n+]2cc(-c3ccc(Br)cc3)n3c2SCCC3)cc1` the IFI was 7.69%. `CC1CCN(C(=O)C2CCCN(S(=O)(=O)c3ccc4[nH]c(-c5ccccc5)nc4c3)C2)CC1` (stereo unspecified) showed an IFI of 3.12%. Compound `Fc1ccc(CSc2nc3cccnc3[nH]2)cc1` has an IFI of 0%. Compound `COC(=O)c1cn([C@H]2C[C@@H](C(=O)NCc3ccc(OC)cc3)N(Cc3ccsc3)C2)nn1` has an IFI of 1.98%. With `Cc1cccc(-c2cc3nc(C)c(C)c(O)n3n2)c1` the IFI was 0%. With `CCCNC(=O)Cn1nc(C)n2c(cc3sccc32)c1=O` the IFI was 0%. In the case of `COc1ccc(-c2cc(=O)c3c(O)cc(OC4OC(COC5OC(C)C(O)C(O)C5O)C(O)C(O)C4O)cc3o2)cc1` (stereo unspecified), the IFI was 0%. `CC(=O)Nc1ccccc1OC(F)(F)F` showed an IFI of 2.13%. Work on `COc1ccc(-c2c[n+](CC(=O)c3ccc(C)cc3)c3n2CCC3)cc1` yielded an IFI of 2.38%. `CC(=O)N(C1=C(N2CCCCC2)C(=O)c2ccccc2C1=O)c1cccc(Cl)c1` showed an IFI of 7.69%. In the case of `CCOC(=O)C1=C(C)NC2=C(C(=O)CCC2)C1c1ccc([N+](=O)[O-])cc1` (stereo unspecified), the IFI was 1.14%. For `CCN1/C(=C/C2=CC(=C/c3sc4ccccc4[n+]3CC)/CC(C)(C)C2)C=Cc2ccccc21`, the IFI was 9.43%. `CCCCCCCCCCCC(=O)N(C)CCCNc1ccnc2cc(Cl)ccc12` gave an IFI of 2.8%. With `CCCCOc1ccc(C(=O)N(C)CCCNc2ccnc3cc(Cl)ccc23)cc1` the IFI was 2.75%. `O=C(Nc1nc(-c2ccccc2)cs1)c1ccccc1O` gave an IFI of 9.79%. For `CCCCCCCC(=O)N1CCN(C(=O)C(NC(=O)Nc2ccc(Cl)cc2Cl)C(C)CC)CC1` (stereo unspecified), the IFI was 3.74%. Compound `Cc1ccc(S(=O)(=O)NCCCCNc2ccnc3cc(Cl)ccc23)cc1` has an IFI of 2.1%. Compound `CCCCN(CCCC)C(=O)Cn1ccc(=N)c2ccccc21` has an IFI of 0%. Work on `COc1ccc2nc3cc(Cl)ccc3c(Nc3ccc(O)cc3)c2c1` yielded an IFI of 0%. For `COc1ccc(NC2=CC(=O)CC(c3ccccc3)C2)c(OC)c1` (stereo unspecified), the IFI was 0%. `COCCSc1nc2sc3c(c2c(=O)n1-c1ccc(OC)cc1)CCN(C)C3` showed an IFI of 4.54%. With `COc1cc(OC)nc(CSc2ccc(NC(=O)CCl)cc2)n1` the IFI was 0%. `COc1cccc(-c2ccc(O)c(CNCc3ccccc3OC)c2)n1` gave an IFI of 1.75%. Work on `CCC(C)OC(=O)C1=C(C)NC2=C(C(=O)CC(c3ccc(OC)cc3)C2)C1c1ccc(O)cc1` (stereo unspecified) yielded an IFI of 4.54%. Compound `CC(C)(C)NCC(O)Cn1c2ccc(Cl)cc2c2cc(Cl)ccc21` (stereo unspecified) has an IFI of 2.4%. `O=C(NN=Cc1ccc(O)c(O)c1)/C(=C/c1ccccc1)NC(=O)c1ccccc1` gave an IFI of 0%. `O=C(O)Cn1cnc2nc3n(c2c1=O)CCC3` gave an IFI of 0%. Compound `O=C(CCC1CCCC1)NCCCCNc1ccnc2cc(Cl)ccc12` has an IFI of 1.87%. With `COc1ccc(N=C2NC(=O)/C(=C\c3ccc(N(C)C)cc3)S2)cc1` the IFI was 3.49%. `CN(C)CCN1CCN(c2cccc(-c3cccc4cccnc34)n2)CC1` showed an IFI of 4%. Compound `C=CCN1C(=O)/C(=C2/Sc3ccc(OC)cc3N2C)SC1=Nc1ccccc1-c1ccccc1` has an IFI of 0%. `CCCOC(=O)C1=C(C)NC2=C(C(=O)CC(c3ccc(Cl)cc3)C2)C1c1ccc(Cl)cc1` (stereo unspecified) gave an IFI of 2.35%. `C=CCSc1nc(Sc2ccc(Cl)cc2)c2sc3ccccc3c2n1` gave an IFI of 1.33%. Compound `Oc1ccc(Cl)cc1CNc1nc2ccccc2[nH]1` has an IFI of 0%. `N=c1n(Cc2ccccc2)c2ccccc2n1CC(O)c1ccc(Cl)cc1` (stereo unspecified) showed an IFI of 4%. In the case of `Oc1ccccc1Nc1nc(NC2CCCC2)c2ccccc2n1`, the IFI was 0%. `S=C(NN=Cc1ccccn1)NC1CC2C=CC1C2` (stereo unspecified) showed an IFI of 19.7%. For `COc1ccc(-n2c(S)nnc2CNc2cccc(C(F)(F)F)c2)cc1`, the IFI was 1.7%. Work on `Cc1ccccc1Cn1c(N2CCC(C(=O)NCc3ccccn3)CC2)nc2ccccc21` yielded an IFI of 0%. `CC(C)(c1ccc(Oc2ccc(NC(=O)c3ccccc3)cc2)cc1)c1cccc(Oc2ccc(NC(=O)c3ccccc3)cc2)c1` gave an IFI of 0%. `Cc1cccnc1NC(=O)CCCC(=O)O` showed an IFI of 0%. `Cc1cc(C(C)(C)C)cc(S(=O)(=O)NCCO)c1C` gave an IFI of 2.98%. In the case of `c1ccc2[nH]c(CN(Cc3nc4ccccc4[nH]3)Cc3nc4ccccc4[nH]3)nc2c1`, the IFI was 13.7%. For `CN(C)[C@@H]1CCN(Cc2cccc(Cl)c2)C[C@@H]1CCC(=O)NCCCN1CCOCC1`, the IFI was 1.82%. With `CCOC(=O)NN=C1C=C2C=CC3C(CC[C@@]4(C)C3CC3CCCCC34C(C)=O)[C@@]2(C)CC1` (stereo partly specified) the IFI was 0%. `COc1ccc(C2CC(=O)C3=C(C2)NC(C)=C(C(=O)OC2CCCC2)C3c2ccc(SC)cc2)cc1OC` (stereo unspecified) showed an IFI of 5.88%. Work on `COc1nc(NC(=N)N)nc2ccc(C)cc12` yielded an IFI of 6.06%. Compound `COc1ccc(C2(C(=O)NCc3ccccc3Cl)CCCC2)cc1OC` has an IFI of 0%. For `CC(C)CNC(=O)c1cnc(NCCCN2CCCCC2C)nc1NC1CCCC1` (stereo unspecified), the IFI was 1.91%. Work on `O=C(COC(c1ccccc1)c1c(Cl)cncc1Cl)N1CCC(c2ccccn2)C1` (stereo unspecified) yielded an IFI of 0.971%.
